Data published in the supplement of paper PMC12632987.
In all, about 1,800 sequences were measured (“median log2 fold change of GCK-ALFA target abundance (FLAG IP / Myc IP barcode read proportion)”: median about 0.14, lowest 2% from about -0.84 on). The list shows a part of the results.

T1: TRAF2, Q12933
T1 chain: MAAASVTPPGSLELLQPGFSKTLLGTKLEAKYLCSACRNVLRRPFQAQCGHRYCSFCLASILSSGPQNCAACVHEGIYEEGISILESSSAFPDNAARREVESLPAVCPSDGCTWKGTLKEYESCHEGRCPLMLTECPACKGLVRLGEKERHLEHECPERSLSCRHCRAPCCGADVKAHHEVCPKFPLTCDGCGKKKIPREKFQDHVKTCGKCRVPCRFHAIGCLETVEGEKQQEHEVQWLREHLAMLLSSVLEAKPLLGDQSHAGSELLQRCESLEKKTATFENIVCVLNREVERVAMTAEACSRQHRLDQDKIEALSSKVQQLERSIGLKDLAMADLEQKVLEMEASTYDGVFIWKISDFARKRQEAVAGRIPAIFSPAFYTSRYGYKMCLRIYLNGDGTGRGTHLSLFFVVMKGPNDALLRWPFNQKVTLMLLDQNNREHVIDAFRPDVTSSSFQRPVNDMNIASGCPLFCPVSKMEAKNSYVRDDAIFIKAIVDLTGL

B1: traf2_out_20_3_2112 (protein)
chain: EELEKELKEELKKAEELLKEAAKLADPETAKKLKELAKRLKESEKLSYTDRLVVVSEIKREVLLLQQEAEKAGKKELAKVLEKAAEALNKAANLLMKIIE
B2: traf2_out_13_95_1080 (protein)
chain: SKETNEEIMKIADEMLEKSEKILKELIKKVADNPEAKAAVEKALHLNETQGINAAIHLLKELAKKNPEYKELLNEAIEKLEKIRREAGRKVAELLKKEEE
B3: traf2_out_17_162_1551 (protein)
chain: SALEEELERLEEELRRLEEELERLKKELENLEKKSKEELTDLLVEASEARRRARELAERLRELEPLIGEERAGELRERAEEIAEELQRIANKIYKELEKK
B4: traf2_out_20_3_2148 (protein)
chain: SELEEELKKELEEALKILEEASKLADPKTAKKLDKLKKKLEESEKLSYSDRLVVVSEVRREVRLLSQEAKAAGKEKLAKLLEEAAEKLNRAANLLMKIIE
B5: traf2_out_16_104_1416 (protein)
chain: AAATAARFDEIIARYEEIAEEAQRIANELYELYLKASPEKKKELSDLLVEVSELRREALEARLEVERARATGGDLAAHEARLEELEKRLEELKKEAEKLK
B6: traf2_out_13_95_1115 (protein)
chain: SKELAEKIMEISDKALDQANALLDALEAKIKASGKLAPEVAAALAAAKKSTISTAIHTLKELAKKYPEFKADFEATIAQLEQIRRDAGREVAKLIKEEKE
B7: traf2_out_18_117_1771 (protein)
chain: SEREKIIKELEELAERLARAASELGKAVLEHWEELTPEEKSEAMDVLADLSEVRREALLLIHRIKEEGLPVEEARKRFEELKKRAEEALKAAEARIKRIE
B8: traf2_out_17_178_1699 (protein)
chain: SKEALRAEISALTDELIDLTDRYGTELLARARAEGVLSPEELAALEAALASGSNRTFLATAEEILPRSAASPETLALLEEFKEERRRLEKKIAEAYEKYE
B9: traf2_out_18_167_1835 (protein)
chain: EEEKEKKRNELLDEMIDISEHYRAAIEYLELLAKDPKEAEAKKEEYMKKIDKDPELVAKIKEVLALPDEERKKAAKALADEVYDERQKKMQELWDKREAV
B10: traf2_out_18_3_1919 (protein)
chain: SEEERKEISEKIDEIVDEATARAREALDRGLAEHPEFAAEFERLRADLDAGAGPFGILDALAELFRRAGDEAAAAELEAFLREKRKELQELVDKYEELLK
B11: traf2_out_13_95_1217 (protein)
chain: SKEANEERRKVANDMLDRAEAVIDDLAAKLAPYPETKADIDAIRHALNNHGISAAIAKLEEAAKKYPEVAELFEAAAAELRAIRAEAGKKFAEIDKKELE
B12: traf2_out_20_3_2218 (protein)
chain: DELKKEIKKKLEEMEKLLEEAKPLLKPEDYAELKKLLEEAKKALEKDLTDALVKLSELRRKALELAQKAKAAGNEELAKLLEEMAELANKAAGLVLKAIE
B13: traf2_out_17_178_1692 (protein)
chain: SKEEERAKISALTDELIDLAEATGRRLLALAEAAGALSPEELAALRRATRLGSARDVLALTARAPPELRADPEVQALVADLRARTRELGKKIAEAYERYE
B14: traf2_out_11_155_696 (protein)
chain: EEKIKLNNELVDEMMKIEDEAKAKLAEIADAAAAEHPEHAAEIAALLEESRRFSATTMAGMLAALFRELGLEEYAARVEELREEAQKKKNEIYKEIEKKM
B15: traf2_out_1_158_922 (protein)
chain: DTLKNLILSVIELTGQNAIDSARDNGDEETAKALEKLTKEILEAAKKLLFEENKSPEEVIKEIEKIAEKAEKEVDEETAEAIRELRRKIVSGIKQVVKLM
B16: traf2_out_11_57_903 (protein)
chain: ELEKLLKELEKIARELLKILEEAGAPESLIQLAKRLKEIVEDAKESDTETRKLLLEAAKYRAKQIVDEIKAAGPSTPELKKALELAEEAKKLAKEAIKLL
B17: traf2_out_20_154_1999 (protein)
chain: SILDKLNEEAEKASLYRFKSRLYRLAAQEKAKPGSAAKELATLKKTYKADPEKVAAYEEVEKDLAAGASVEEFEAKAAEYEKKYKETNKKVNELLKKYEE
B18: traf2_out_18_117_1775 (protein)
chain: SERDKIIAELKALAEELDAAASRLGKAVLEHWDELTPEERSAAMDVLADLSAVRREALELIHRIEEEGLPLEEAKERAEALKKRADAALAAADAMIARIA
B19: traf2_out_17_178_1667 (protein)
chain: SKEEKRKKISEATDELIDLAEEAAATLLAIARAEGVATPEELAAIEAARRRGSANEVLALMDRFEPRSPRAAEVAALRDDFRARYRELAKKIAEAYKEYE
B20: traf2_out_1_158_919 (protein)
chain: DVKNNLMLATIKLVVENQVQSALDDGDEEAAKEIKELGEKLIELAKKLQIEEKKSVEELIEAIRKLVEERKKKVDEKTAERIKRLERQVISGLKQVDKLM
B21: traf2_out_20_3_2165 (protein)
chain: EELEKEAEKELEKALKLLKEAAKLSDPETAKKLEELIKRLKASKSLSPVDRLVVVSEVRREVLRLAEEAKKAGKEELAKLLEKAADELNRLAQLLNKIIE
B22: traf2_out_5_63_2369 (protein)
chain: SSREEERKKLTEEAKEIEKIVLEALKLSREEAKKLVEEAAERGLDINLIAGTFRAHARFLRLQGGDEEEIEKAEELAKFAEELRKKKEAEAAAKAAALAA
B23: traf2_out_20_3_2133 (protein)
chain: EELRRAYREALAEAIALLKEAAKLADPETAKRLEALVARLKASEELPLEDQLVVLSEVRREVRALAEEARRAGKEELAAVLEAAADALNRAMNLVMRLIE
B24: traf2_out_5_192_2334 (protein)
chain: AAAAAAAREAFLAAARAELTAEVAALAAEADRISEEELTIRLEHAVLTLLNRAETAEQREAVIAIAREVLEAEPRISPETVEGVVRTARQVLEALEAVDA
B25: traf2_out_11_155_741 (protein)
chain: EEKQKLLQEMNQKITDLFDKAKEKALEIAEEAAKKHPEHAEEIKELIEKTKGFSYRSFILSLIELFEKLGLEEEAKKLKELLEKTQKEANKIVQETEKKL
B26: traf2_out_6_156_2445 (protein)
chain: MKEAILAETKAKLEEEIKKLAKASEEKKIKYISNIAGTVYRALQRLREAGASLEEIKAFAEEVKAFIEKEAKKYGLDEDTKNLLLSSVNAVFDVALAEAK
B27: traf2_out_19_16_1966 (protein)
chain: ARERLEELERELEEIEERVERLEKYFEENKETLTREEASDLLVEVSELRRRAREILQELEELEPYDPERVEELKRRAEEVIERAQRLMNELVDLYLSLQK
B28: traf2_out_11_169_781 (protein)
chain: KEAEFNRKLNDFALELNDKAKEELKKAALERAKEAGLDVAEVEAIFEANKGKSLSAIAAALIAHYRSLGREDEAAWVLKLYEELKEKINKEVTAKIKELK
B29: traf2_out_20_8_2268 (protein)
chain: MSMEEKLARAADLILEAKDLVRATVRAVLADERAPAVARRAAAALSVSVSADDTDADILARIRDRAAAALDALAAETGDPRLADARARVAAALDARAAAA

Biological target: T1, TRAF2, Q12933
Assay: median log2 fold change of GCK-ALFA target abundance (FLAG IP / Myc IP barcode read proportion) (log2 ratio); each designed protein is fused to an ALFA-tag nanobody in HEK293 cells to bring the named protein to FLAG-tagged glucokinase (GCK); Myc marks an untargeted standard; higher = target protein stabilised (more abundant)
Details: target protein: 3xFLAG-MCP-GCK-ALFA reporter; HEK293 landing pad (RPLP)
Method in brief: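 HEK293 landing-pad cells received a recombined binder library fused to the ALFA nanobody and were induced with 2 μg mL^−1 doxycycline, then transfected with a plasmid encoding a FLAG-tagged target and a Myc-tagged standard. Lysates were collected after 48 h for anti-FLAG and anti-Myc immunoprecipitation, and the circular RNA barcodes were reverse transcribed, amplified and sequenced. Target abundance for each binder is the median log2 ratio of FLAG to Myc barcode read proportions. Barcodes had to reach a proportion of at least 10^−7 in both replicates, each binder needed at least 3 barcodes per replicate, a pseudocount of 10^−6 was applied, and the two replicates were pooled.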

Row | Binder | median log2 fold change
1 | B1 | 0.339
2 | B2 | -0.2
3 | B3 | 0.0543
4 | B4 | 0.264
5 | B5 | 0.286
6 | B6 | -0.178
7 | B7 | -0.0427
8 | B8 | 0.224
9 | B9 | 0.297
10 | B10 | 0.19
11 | B11 | 0.198
12 | B12 | 0.304
13 | B13 | -0.0433
14 | B14 | 0.295
15 | B15 | 0.336
16 | B16 | 0.276
17 | B17 | -0.0315
18 | B18 | -0.156
19 | B19 | 0.105
20 | B20 | 0.00946
21 | B21 | 0.316
22 | B22 | -0.191
23 | B23 | -0.176
24 | B24 | 0.276
25 | B25 | 0.279
26 | B26 | 0.135
27 | B27 | 0.225
28 | B28 | -0.065
29 | B29 | -0.12
